# Experimental data: the supplement of paper PMC8728848
# The list shows a part of the results.
# Tests used:
# Assay in all cases: glycan array binding signal (z-score within array); higher = stronger binding
# Conditions in all cases: glycan notation: IUPAC condensed, linker removed
# [1] = target: Neu5Ac(a2-3)Gal(b1-4)[Fuc(a1-3)]GlcNAc(b1-3)Gal(b1-4)[Fuc(a1-3)]GlcNAc(b1-3)Gal(b1-4)[Fuc(a1-3)]GlcNAc
# Outline: (§1)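 Glycan array data came from 3228 arrays in the Consortium for Functional Glycomics database, and only arrays with an available protein sequence were kept. Glycan names were put into IUPAC-condensed notation, and columns mapping to the same glycan were averaged. The binding signal is a within-array Z-score, averaged across arrays of one protein sequence run at different concentrations or buffers and across linkers. A negative Z-score can be read as non-binding.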
# [2] = target: Neu5Ac(a2-3)Gal(b1-4)[Fuc(a1-3)]GlcNAc(b1-6)[Gal(b1-3)]GalNAc
# Outline: as §1
# [3] = target: Neu5Ac(a2-3)Gal(b1-4)[Fuc(a1-3)]GlcNAc(b1-6)[Neu5Ac(a2-3)Gal(b1-3)]GalNAc
# Outline: as §1
# [4] = target: Neu5Ac(a2-3)Gal(b1-4)[Fuc(a1-3)]GlcNAc6S
# Outline: as §1
# [5] = target: Neu5Ac(a2-3)Gal6S(b1-4)GlcNAc
# Outline: as §1
# [6] = target: Neu5Ac(a2-3)Gal6S(b1-4)[Fuc(a1-3)]GlcNAc
# Outline: as §1
# Neu5Ac(a2-3)GalNAc = target: Neu5Ac(a2-3)GalNAc
# Outline: as §1
# [7] = target: Neu5Ac(a2-3)GalNAc(b1-4)GlcNAc
# Outline: as §1
# [8] = target: Neu5Ac(a2-3)[GalNAc(b1-4)]Gal(b1-4)Glc
# Outline: as §1
# [9] = target: Neu5Ac(a2-3)[GalNAc(b1-4)]Gal(b1-4)GlcNAc
# Outline: as §1
# [10] = target: Neu5Ac(a2-3)[Neu5Ac(a2-6)]GalNAc
# Outline: as §1
# Neu5Ac(a2-6)Gal = target: Neu5Ac(a2-6)Gal
# Outline: as §1
# Neu5Ac(a2-6)Gal(b1-4)Glc = target: Neu5Ac(a2-6)Gal(b1-4)Glc
# Outline: as §1
# [11] = target: Neu5Ac(a2-6)Gal(b1-4)GlcNAc
# Outline: as §1
# [12] = target: Neu5Ac(a2-6)Gal(b1-4)GlcNAc(b1-2)Man(a1-3)Man(b1-4)GlcNAc(b1-4)GlcNAc
# Outline: as §1
# [13] = target: Neu5Ac(a2-6)Gal(b1-4)GlcNAc(b1-2)Man(a1-3)[Gal(b1-4)GlcNAc(b1-2)Man(a1-6)]Man(b1-4)GlcNAc(b1-4)GlcNAc
# Outline: as §1
# [14] = target: Neu5Ac(a2-6)Gal(b1-4)GlcNAc(b1-2)Man(a1-3)[GlcNAc(b1-2)Man(a1-6)]Man(b1-4)GlcNAc(b1-4)GlcNAc
# Outline: as §1
# [15] = target: Neu5Ac(a2-6)Gal(b1-4)GlcNAc(b1-2)Man(a1-3)[GlcNAc(b1-2)Man(b1-4)GlcNAc(b1-2)Man(a1-6)]Man(b1-4)GlcNAc(b1-4)GlcNAc
# Outline: as §1
# [16] = target: Neu5Ac(a2-6)Gal(b1-4)GlcNAc(b1-2)Man(a1-3)[Man(a1-6)]Man(b1-4)GlcNAc(b1-4)GlcNAc
# Outline: as §1
# [17] = target: Neu5Ac(a2-6)Gal(b1-4)GlcNAc(b1-2)Man(a1-3)[Neu5Ac(a2-6)Gal(b1-4)GlcNAc(b1-2)Man(a1-6)]Man(b1-4)GlcNAc(b1-4)GlcNAc
# Outline: as §1
# [18] = target: Neu5Ac(a2-6)Gal(b1-4)GlcNAc(b1-2)Man(a1-6)Man(b1-4)GlcNAc(b1-4)GlcNAc
# Outline: as §1
# [19] = target: Neu5Ac(a2-6)Gal(b1-4)GlcNAc(b1-2)Man(a1-6)[Gal(b1-4)GlcNAc(b1-2)Man(a1-3)]Man(b1-4)GlcNAc(b1-4)GlcNAc
# Outline: as §1
# [20] = target: Neu5Ac(a2-6)Gal(b1-4)GlcNAc(b1-2)Man(a1-6)[GlcNAc(b1-2)Man(a1-3)]Man(b1-4)GlcNAc(b1-4)GlcNAc
# Outline: as §1
# [21] = target: Neu5Ac(a2-6)Gal(b1-4)GlcNAc(b1-2)Man(a1-6)[Man(a1-3)]Man(b1-4)GlcNAc(b1-4)GlcNAc
# Outline: as §1
# [22] = target: Neu5Ac(a2-6)Gal(b1-4)GlcNAc(b1-3)Gal(b1-3)GlcNAc
# Outline: as §1
# [23] = target: Neu5Ac(a2-6)Gal(b1-4)GlcNAc(b1-3)Gal(b1-4)GlcNAc
# Outline: as §1
# [24] = target: Neu5Ac(a2-6)Gal(b1-4)GlcNAc(b1-3)Gal(b1-4)GlcNAc(b1-3)Gal(b1-4)GlcNAc
# Outline: as §1
# [25] = target: Neu5Ac(a2-6)Gal(b1-4)GlcNAc(b1-3)Gal(b1-4)[Fuc(a1-3)]GlcNAc(b1-3)Gal(b1-4)[Fuc(a1-3)]GlcNAc
# Outline: as §1
# [26] = target: Neu5Ac(a2-6)Gal(b1-4)GlcNAc(b1-3)GalNAc
# Outline: as §1
# [27] = target: Neu5Ac(a2-6)Gal(b1-4)GlcNAc6S
# Outline: as §1
# Neu5Ac(a2-6)GalNAc = target: Neu5Ac(a2-6)GalNAc
# Outline: as §1
# [28] = target: Neu5Ac(a2-6)GalNAc(b1-4)GlcNAc
# Outline: as §1
# [29] = target: Neu5Ac(a2-6)GlcNAc(b1-4)GlcNAc
# Outline: as §1
# [30] = target: Neu5Ac(a2-6)GlcNAc(b1-4)GlcNAc(b1-4)GlcNAc
# Outline: as §1
# Neu5Ac(a2-8)Neu5Ac = target: Neu5Ac(a2-8)Neu5Ac
# Outline: as §1
# [31] = target: Neu5Ac(a2-8)Neu5Ac(a2-3)Gal(b1-4)Glc
# Outline: as §1
# [32] = target: Neu5Ac(a2-8)Neu5Ac(a2-3)[GalNAc(b1-4)]Gal(b1-4)Glc
# Outline: as §1
# [33] = target: Neu5Ac(a2-8)Neu5Ac(a2-8)Neu5Ac
# Outline: as §1
# [34] = target: Neu5Ac(a2-8)Neu5Ac(a2-8)Neu5Ac(a2-3)Gal(b1-4)Glc
# Outline: as §1
# [35] = target: Neu5Ac(a2-8)Neu5Ac(a2-8)Neu5Ac(a2-3)[GalNAc(b1-4)]Gal(b1-4)Glc
# Outline: as §1
# [36] = target: Neu5Ac(a2-8)Neu5Ac(a2-8)Neu5Ac(a2-8)Neu5Ac(a2-3)[GalNAc(b1-4)]Gal(b1-4)Glc
# Outline: as §1
# [37] = target: Neu5Ac(b2-6)Gal(b1-4)GlcNAc
# Outline: as §1
# Neu5Ac(b2-6)GalNAc = target: Neu5Ac(b2-6)GalNAc
# Outline: as §1
# [38] = target: Neu5Ac9Ac(a2-3)Gal(b1-3)GlcNAc
# Outline: as §1
# [39] = target: Neu5Ac9Ac(a2-3)Gal(b1-4)GlcNAc
# Outline: as §1
# [40] = target: Neu5Ac9Ac(a2-6)Gal(b1-4)GlcNAc
# Outline: as §1
# [41] = target: Neu5Gc(a2-3)Gal(b1-3)GlcNAc
# Outline: as §1
# [42] = target: Neu5Gc(a2-3)Gal(b1-3)[Fuc(a1-4)]GlcNAc
# Outline: as §1
# Neu5Gc(a2-3)Gal(b1-4)Glc = target: Neu5Gc(a2-3)Gal(b1-4)Glc
# Outline: as §1
# [43] = target: Neu5Gc(a2-3)Gal(b1-4)GlcNAc
# Outline: as §1
# [44] = target: Neu5Gc(a2-3)Gal(b1-4)[Fuc(a1-3)]GlcNAc
# Outline: as §1
# [45] = target: Neu5Gc(a2-6)Gal(b1-4)GlcNAc
# Outline: as §1
# Neu5Gc(a2-6)GalNAc = target: Neu5Gc(a2-6)GalNAc
# Outline: as §1
# [46] = target: Neu5Gc(b2-6)Gal(b1-4)GlcNAc
# Outline: as §1
binder,measurement,setting,value
"GALT1 115 D492A (Arabidopsis thaliana), Q8L7F9 (protein) DPMRGSHHHHHHGMASMTGGQQMGRDLYDDDDKSRLQKPYITAAASVVVTPNTTLPMEWLRITLPDFMKEARNTQEAISGDDIAVVSGLFVEQNVSKEEREPLLTWNRLESLVDNAQSLVNGVDAIKEAGIVWESLVSAVEAKKLVDVNENQTRKGKEELCPQFLSKMNATEADGSSLKLQIPCGLTQGSSITVIGIPDGLVGSFRIDLTGQPLPGEPDPPIIVHYNVRLLGDKSTEDPVIVQNSWTASQDWGAEERCPKFDPDMNKKVDDLDECNKMVGGEINRTSSTSLQSNTSRGVPVAREASKHEKYFPFKQGFLSVATLRVGTEGMQMTVDGKHITSFAFRDTLEPWLVSEIRITGDFRLISILASGLPTSEESEHVVDLEALKSPTLSPLRPLDLVIGVFSTANNFKRRMAVRRTWMQYDDVRSGRVAVRFFVGLHKSPLVNLELWNEARTYGDVQLMPFVDYYSLISWKTLAICIFGTEVDSAKFIMKTDDAAFVRVDEVLLSLSMTNNTRGLIYGLINSDSQPIRNPDSKWYISYEEWPEEKYPPWAHGPGYIVSRDIAESVGKLFKEGNLKMFKLEDVAMGIWIAELTKHGLEPHYENDGRIISDGCKDGYVVAHYQSPAEMTCLWRKYQETKRSLCCREW",glycan array binding signal (z-score),[1],-0.391
same,glycan array binding signal (z-score),[2],-0.228
same,glycan array binding signal (z-score),[3],1.16
same,glycan array binding signal (z-score),[4],-0.172
same,glycan array binding signal (z-score),[5],-0.05
same,glycan array binding signal (z-score),[6],1.25
same,glycan array binding signal (z-score),Neu5Ac(a2-3)GalNAc,-0.101
same,glycan array binding signal (z-score),[7],-0.293
same,glycan array binding signal (z-score),[8],-0.307
same,glycan array binding signal (z-score),[9],0.047
same,glycan array binding signal (z-score),[10],-0.42
same,glycan array binding signal (z-score),Neu5Ac(a2-6)Gal,-0.216
same,glycan array binding signal (z-score),Neu5Ac(a2-6)Gal(b1-4)Glc,-0.002
same,glycan array binding signal (z-score),[11],-0.187
same,glycan array binding signal (z-score),[12],-0.076
same,glycan array binding signal (z-score),[13],0.218
same,glycan array binding signal (z-score),[14],-0.257
same,glycan array binding signal (z-score),[15],-0.046
same,glycan array binding signal (z-score),[16],-0.462
same,glycan array binding signal (z-score),[17],0.357
same,glycan array binding signal (z-score),[18],-0.138
same,glycan array binding signal (z-score),[19],-0.362
same,glycan array binding signal (z-score),[20],-0.198
same,glycan array binding signal (z-score),[21],-0.139
same,glycan array binding signal (z-score),[22],-0.175
same,glycan array binding signal (z-score),[23],-0.441
same,glycan array binding signal (z-score),[24],-0.243
same,glycan array binding signal (z-score),[25],0.259
same,glycan array binding signal (z-score),[26],-0.313
same,glycan array binding signal (z-score),[27],0.087
same,glycan array binding signal (z-score),Neu5Ac(a2-6)GalNAc,-0.312
same,glycan array binding signal (z-score),[28],-0.406
same,glycan array binding signal (z-score),[29],-0.235
same,glycan array binding signal (z-score),[30],-0.065
same,glycan array binding signal (z-score),Neu5Ac(a2-8)Neu5Ac,-0.221
same,glycan array binding signal (z-score),[31],-0.299
same,glycan array binding signal (z-score),[32],-0.078
same,glycan array binding signal (z-score),[33],-0.105
same,glycan array binding signal (z-score),[34],-0.151
same,glycan array binding signal (z-score),[35],0.059
same,glycan array binding signal (z-score),[36],-0.089
same,glycan array binding signal (z-score),[37],-0.009
same,glycan array binding signal (z-score),Neu5Ac(b2-6)GalNAc,-0.173
same,glycan array binding signal (z-score),[38],-0.275
same,glycan array binding signal (z-score),[39],-0.039
same,glycan array binding signal (z-score),[40],-0.059
same,glycan array binding signal (z-score),[41],-0.1
same,glycan array binding signal (z-score),[42],-0.32
same,glycan array binding signal (z-score),Neu5Gc(a2-3)Gal(b1-4)Glc,0.317
same,glycan array binding signal (z-score),[43],0.25
same,glycan array binding signal (z-score),[44],-0.3
same,glycan array binding signal (z-score),[45],-0.165
same,glycan array binding signal (z-score),Neu5Gc(a2-6)GalNAc,-0.444
same,glycan array binding signal (z-score),[46],0.041
